Measurements from ChEMBL document CHEMBL1157539, “Thousands of chemical starting points for antimalarial lead identification” (Nature, 2010).
The full ranking holds about 13,000 compounds; the median of “IFI” is about 4, and the highest 2% start at about 17. Some of the results follow.

assay: GSK_TCMDC: Inhibition Frequency Index (IFI). The number of non-kinase HTS assays where a compound showed > 50 % inhibition, expressed as a percentage of the number of such assays in which the compound was tested (-0 is zero); type: functional

Compound	IFI [%]
NCC1CCCN1Cc1ccc(-c2cccc(-c3nc4cc(C(F)(F)F)ccc4[nH]3)c2)cc1 (stereo unspecified)	12.8
O=c1cc(NCCCNCc2ccc(C(F)(F)F)cc2F)[nH]c2ccccc12	3.62
Nc1nc2c(ncn2COC(COCc2ccccc2)COCc2ccccc2)c(=O)[nH]1.Nc1nc2ncn(COC(COCc3ccccc3)COCc3ccccc3)c2c(=O)[nH]1	-0
Cc1cccc2nc(-c3cccc(-c4ccc(NC(=O)C5CCN(C)CC5)cc4)c3)[nH]c12	3.51
CCCNc1nc(Nc2ccccc2C)nc2ccccc12	7.04
CN(C)CCN(C)C(=O)c1cc(-c2ccncc2)c(-c2ccc(Cl)c(O)c2)o1	-0
Oc1ccccc1CCNC1CCc2ccccc2C1 (stereo unspecified)	-0
CC(c1cccc(Nc2nccc(-c3c(-c4cccc(NC(=O)c5c(F)cccc5F)c4)nn4ccccc34)n2)c1)S(C)(=O)=O (stereo unspecified)	6.31
CC(c1cccc(S(=O)(=O)NCc2cccc(C(F)(F)F)c2)c1)N1CCC(N2CCCCC2)CC1 (stereo unspecified)	7.14
COc1cc(CN/C(=N/c2ccc(-c3ccccc3)cc2)Nc2ccc(C#N)cc2O)cc(OC)c1	1.46
CCCCCCCC1CC(CC(=O)Nc2ccnc3ccc(OC)cc23)CN1C(=O)OC(C)(C)C (stereo unspecified)	7.21
O=C(/C=C/c1ccc(Cl)c(Cl)c1)NCCCCCN1CCCC(c2c[nH]c3ccccc23)C1 (stereo unspecified)	5.8
COc1ccc2c(NN=Cc3cccnc3)ccnc2c1	-0
CC1CCCC(Nc2noc(-c3sccc3Br)n2)C1 (stereo unspecified)	7.69
CCN(CC(C)O)C(=O)c1ccc(-c2cccc(-c3nc4cccc(C)c4[nH]3)c2)cc1 (stereo unspecified)	2.88
COc1cc(Cc2cnc(N)nc2N)cc(OCCCCc2ccc([N+](=O)[O-])cc2)c1OC	2.92
Cc1ccccc1CCNC(=O)c1cnc(N2CCN(c3ccncc3)CC2)c(Cl)c1	20.8
CCCN(Cc1ccc(OCC)cc1)Cc1cc(=O)c2cc(Cl)ccc2[nH]1	10.6
COc1ccc(NC(=O)[C@H](Cc2ccccc2)Nc2cc(C)nc(NCCc3cccs3)n2)cc1	9.52
Cc1cccc(OCCCCON2C(=N)N=C(N)NC2(C)C)c1C	3.68
COc1ccc(Cl)cc1N1CCN(CCCNC(=O)c2ccc(-c3nc4cc(Cl)c(Cl)cc4[nH]3)c(C)c2)CC1	0.74
COc1ccc(Nc2nc(N)c3cc(OC)c(OC)cc3n2)cc1OC	-0
CCC[C@@H]1CCN[C@H]([C@H](O)c2ccnc3ccc(OC)cc23)C1	0.81

Compound	IFI [%]
CC(O)CNc1nc2ccccc2n1CC(=O)Nc1cccc(C(=O)Nc2cccc(C(F)(F)F)c2)c1 (stereo unspecified)	0.93
Cc1ccc2[nH]c(-c3ccccc3N)cc2c1	4.79
Cc1cccc2nc(-c3ccc(-c4cccc(NC(=O)c5cnccc5C(F)(F)F)c4)cc3)[nH]c12	8.11
Oc1c(C(Nc2nc3ccccc3s2)c2ccc(OC(F)F)cc2)ccc2cccnc12 (stereo unspecified)	9.4
Cc1cccc(Nc2nc3nonc3nc2Nc2cccc(Cl)c2Cl)c1C	16.4
FC(F)(F)c1ccc(N2CCCN(Cc3cccc(-c4ccccc4CNCc4ccc5c(c4)OCO5)c3)CC2)nc1	11.7
Nc1c2c(nc3ccc(NC(=O)CCCCCCc4ccccc4)cc13)CCCC2	15.8
O=C(Nc1cccc(CN2CCCN(CCc3ccccc3)CC2)c1)c1ccc(Cl)c(Cl)c1	3.36
O=C(NCc1cccc(C(F)(F)F)c1)[C@@H]1CCCN1C(=O)c1ccc(O)c(-c2ccc(Cl)c(Cl)c2)c1	5.19
CCNc1cc(C)nc(Nc2ccc(F)cc2)n1	4.35
Cc1ccc(O)cc1Nc1ccnc2cc(-c3csc(CN(C)CCN(C)C)n3)ccc12	4.96
O=C(c1cc(-c2ccco2)n[nH]1)N1CCN(S(=O)(=O)c2ccc(Br)cc2)CC1	0
COc1cc(C(C)C)nc2ccc(NC(=O)c3ccc(C(=O)Nc4ccc5nc(C(C)C)cc(OC)c5c4)cc3)cc12	3.03
CC(=O)N(C)C1CCN(Cc2ccc(-c3ccc(-c4nc5cc(F)ccc5[nH]4)s3)cc2)C1 (stereo unspecified)	8.33
COc1cccc(-c2csc(C(=O)NCC3CCN(Cc4ccc(C(C)(C)C)cc4)C3)c2)c1 (stereo unspecified)	12.2
CC(=O)Oc1c(C2C=CCCC2)c(OC(C)=O)c2ccccc2c1OC(C)=O (stereo unspecified)	4
O=S1(=O)C=C(c2ccccc2)CC1	2.21
COc1cccc(NC(=O)c2cc(Br)cc(N3CCN(c4ccncc4)CC3)c2)c1	12.5
O=C(/C=C/c1ccc(Cl)cc1)NCCCCCN1CCC(C(=O)Nc2ccc(Cl)cc2)CC1	10.6
CCOc1ccc2[nH]c(C)cc(=NN=Cc3ccc(Cl)cc3)c2c1	2.29
N[C@@H](Cc1cc(I)c(Oc2ccc(O)c(Cl)c2)c(I)c1)C(=O)O	2.26
O=C(NCCCCN1CCC(c2ccc3c(c2OCc2ccccn2)CCCC3)CC1)c1ccc(NC(=O)c2ccc(Cl)cc2)cc1	9.73
CCCCC(CC)CN1C(=O)C(c2ccccc2)(c2ccccc2)N=C1N (stereo unspecified)	16.3

Compound	IFI [%]
c1cc(CNCCN2CCNCC2)cc(-c2ccc(-c3nc4ccccc4[nH]3)cc2)c1	3.92
CCN(CC)CCN(Cc1ccc(-c2ccc(C(F)(F)F)cc2)cc1)C(=O)Cn1cc(Cc2cnn(C)c2)c(=O)n2nc(-c3ccccc3)cc12	6.57
CN1CCC(NCc2ccc(-c3cnc(NCc4ccccc4)nc3)cc2)CC1	8.45
COc1ccc2[nH]ccc(=NN=Cc3cccnc3)c2c1	0.72
O=C(NCCc1cccc(F)c1)c1cc(Br)cc(N2CCN(c3ccncc3)CC2)c1	8.33
CCCc1ccc(NC(=O)c2ccc(CN3CCCN(Cc4ccc(OC)cc4)CC3)cc2)cc1	14.4
COc1ccc2nc(-c3ccccc3)cc(N/N=C/c3ccc([N+](=O)[O-])cc3)c2c1	5.93
Cc1ccnc(Nc2nc(-c3ccccn3)cs2)c1	7.97
CN1CCN(Cc2cccc(-c3ccc4c(Nc5ccc(Oc6cccnc6)cc5)ccnc4c3)c2)CC1	6.02
O=C(Nc1ccc(Cl)c(Cl)c1)Nc1ccccc1N1CCNCC1	15
CN1CCC(N(Cc2ccc(N3CCN(Cc4c[nH]c5ccc(Cl)cc45)CC3)nc2)C2CC2)CC1	6.45
Clc1cc(Br)ccc1-c1ccc(CNCC2CCNCC2)o1	26.3
CCOC(=O)c1ccc(NC(=O)Nc2ccc(-c3ccc(-c4nc5ccccc5[nH]4)cc3)cc2)cc1	2
COc1cc2c(cc1N1CCN(C)CC1)N(C(=O)Nc1ccc(-c3ccncc3)c(Cl)c1Cl)CC2	3.62
CCCCCN1CCCC(NS(=O)(=O)c2cccc(C(=O)Nc3cccc(C(F)(F)F)c3)c2)C1 (stereo unspecified)	6.12
CCOC(=O)c1ccc(OCc2ccc(-c3ccccc3)cc2)cc1	0
Nc1cccc(CNCc2ccc(-c3ccc(-c4nc5cc(C(F)(F)F)ccc5[nH]4)s3)cc2)c1	16.5
CCCCC(CC)C(=O)C(NC(=O)[C@H](CSC(c1ccccc1)(c1ccccc1)c1ccccc1)NC(=O)OC(C)(C)C)C(=O)OC (stereo partly specified)	0.92
N=C(N)c1cc(Cl)cc(NC(=O)Nc2cc(Cl)cc(C(=N)N)c2)c1	2.16
CN1CCC(C(=O)Nc2cccc(-c3ccc(-c4nc5cc(C(F)(F)F)ccc5[nH]4)s3)c2)CC1	8.7
OCc1c(Cl)cc(Cl)cc1CNCCCNc1nc2ccccc2[nH]1	2.19
NS(=O)(=O)Cc1cccc(-c2ccnc3ccc(-c4cccc(S(N)(=O)=O)c4)cc23)c1	-0
COc1cc2nc(N3CCC(CNC(=O)c4ccc(-c5ccc(C(F)(F)F)cc5)cc4)CC3)nc(N)c2cc1OC	8.41

Compound	IFI [%]
CCNc1cc(C(=O)N[C@@H](Cc2ccccc2)[C@H](O)CNC2CCCC2)cc(N2CCCC2=O)c1	-0
CN1CCC(Oc2ccc(NC(=O)c3ccc4c(=O)n(Cc5ccccc5)cnc4c3)cc2Cl)CC1	6.8
O=C(Nc1ccc2nc3n(c(=O)c2c1)CCCCC3)C(=O)N1CCC(Cc2ccccc2)CC1	-0
COc1cc2nc(Nc3ccc4c(ccn4Cc4ccccc4)c3)nc(Nc3ccc4c(ccn4Cc4ccccc4)c3)c2cc1OC	4.41
COc1ccccc1C(C)NCC(=O)Nc1cc(C(F)(F)F)ccc1Cl (stereo unspecified)	2.27
NC(=O)c1sc(-n2cnc3ccccc32)cc1OCc1ccccc1[N+](=O)[O-]	3.1
CCOc1c(Br)cc(Br)cc1CNCCCCNc1nc2ccccc2[nH]1	7.25
CS(=O)(=O)c1ccc(CNCc2ccc(-c3ccc(-c4nc5cc(C(F)(F)F)ccc5[nH]4)s3)cc2)cc1	9.8
COc1ccc2c(NN=Cc3cccc(C)n3)ccnc2c1	-0
O=C(NC1CCCCC1)C(c1cccs1)N(CCc1ccccc1)C(=O)c1ccco1 (stereo unspecified)	2.8
NC1=NC2(CCCCC2)N(OCCCCCCC2CCCCC2)C(N)=N1	27.6
CC(C)(C)c1ccc(-c2ccccc2CNC(=O)c2cccc(O)c2)cc1	1.55
Cc1c2c(nn1-c1ccccc1)C(c1ccccc1)N(c1ccccc1)C2=O (stereo unspecified)	1.53
Cn1nccc1C(=O)NCCNCc1ccc(-c2ccc(-c3nc4cc(C(F)(F)F)ccc4[nH]3)s2)cc1	9.9
O=C(Nc1ccc(N2CCN(C(=O)/C=C/c3ccccc3)CC2)c(Cl)c1)c1ccc([N+](=O)[O-])o1	13.9
COc1ccccc1/C=C/C(=O)NC1CCC(CCN2CCc3ccc(-c4cc(C)no4)cc3CC2)CC1 (stereo unspecified)	3.88
NC1CCN(c2nc(NCCCc3ccc(O)cc3)nc(NCc3cccc4ccccc34)n2)CC1	15.6
COc1ccc(NC2=C(c3ccccc3)C(=O)c3ccccc32)cn1	-0
O=C(NC1CCN(Cc2ccccc2)CC1)c1ccc(CNC2CCN(Cc3ccccc3)CC2)cc1	-0
Cc1cc(=NN=Cc2ccccn2)c2cc(C(F)(F)F)ccc2[nH]1	0
Cc1cc(C(=O)Nc2ccc3c(c2)CCN3C2CCN(Cc3ccc4nsnc4c3)C2)no1 (stereo unspecified)	-0
CN1CCN(c2ccc(Nc3nc(N)c4ccn(C5CCC5)c4n3)cc2)CC1	8.11
